Measured values reported in patent US11618753B2 (priority 2018, dated 2023).

These molecules were tested on MLKL phosphorylation, HT29-L23 human colorectal adenocarcinoma cells (assay: cells). Details: read-out: pMLKL HCS Cell Assay (IC50, uM).

Structure (SMILES)	IC50
Cc1ccc(-c2cc(C(F)(F)F)c3c(N)ncnn23)cc1C(=O)N[C@@H]1CN(C(=O)CC(O)(C(F)(F)F)C(F)(F)F)C[C@@H]1F [Example 994, 5-[4-amino-5-(trifluoromethyl)pyrrolo[2,1-f][1,2,4]triazin-7-yl]-N-[(3R,4S)-4-fluoro-1-[4,4,4-trifluoro-3-hydroxy-3-(trifluoromethyl)butanoyl]pyrrolidin-3-yl]-2-methylbenzamide]	0.0013 µM
Cc1ccc(-c2cc(C(F)(F)F)c3c(N)ncnn23)cc1C(=O)N[C@@H]1CN(C(=O)CC(C)(O)C(F)(F)F)C[C@@H]1F (stereo partly drawn) [Example 995, 5-[4-amino-5-(trifluoromethyl)pyrrolo[2,1-f][1,2,4]triazin-7-yl]-N-[(3R,4S)-4-fluoro-1-(4,4,4-trifluoro-3-hydroxy-3-methylbutanoyl)pyrrolidin-3-yl]-2-methylbenzamide]	0.0024 µM
Cc1ccc(-c2cc(C(F)(F)F)c3c(N)ncnn23)cc1C(=O)N[C@@H]1CN(C(=O)CC(C(F)(F)F)C(F)(F)F)C[C@@H]1F [Example 996, 5-[4-amino-5-(trifluoromethyl)pyrrolo[2,1-f][1,2,4]triazin-7-yl]-N-[(3R,4S)-4-fluoro-1-[4,4,4-trifluoro-3-(trifluoromethyl)butanoyl]pyrrolidin-3-yl]-2-methylbenzamide]	0.001 µM
Cc1ccc(-c2cc(C(F)(F)F)c3c(N)ncnn23)cc1C(=O)N[C@@H]1CN(C(=O)C2CC(F)C2)C[C@@H]1F (stereo partly drawn) [Example 997, 5-[4-amino-5-(trifluoromethyl)pyrrolo[2,1-f][1,2,4]triazin-7-yl]-N-[(3R,4S)-4-fluoro-1-(3-fluorocyclobutanecarbonyl)pyrrolidin-3-yl]-2-methylbenzamide]	0.0014 µM
Cc1ccc(-c2cc(C(F)(F)F)c3c(N)ncnn23)cc1C(=O)N[C@@H]1CN(C(=O)c2ccccc2F)C[C@@H]1F [Example 998, 5-[4-amino-5-(trifluoromethyl)pyrrolo[2,1-f][1,2,4]triazin-7-yl]-N-[(3R,4S)-4-fluoro-1-(2-fluorobenzoyl)pyrrolidin-3-yl]-2-methylbenzamide]	0.0012 µM
Cc1ccc(-c2cc(C(F)(F)F)c3c(N)ncnn23)cc1C(=O)N[C@@H]1CN(C(=O)C(C)C(F)(F)F)C[C@@H]1F (stereo partly drawn) [Example 999, 5-[4-amino-5-(trifluoromethyl)pyrrolo[2,1-f][1,2,4]triazin-7-yl]-N-[(3R,4S)-4-fluoro-1-(3,3,3-trifluoro-2-methylpropanoyl)pyrrolidin-3-yl]-2-methylbenzamide]	0.0032 µM
Cc1ccc(-c2cc(C(F)(F)F)c3c(N)ncnn23)cc1C(=O)N[C@@H]1CN(C(=O)C(C)(C)F)C[C@@H]1F [Example 1000, 5-[4-amino-5-(trifluoromethyl)pyrrolo[2,1-f][1,2,4]triazin-7-yl]-N-[(3R,4S)-4-fluoro-1-(2-fluoro-2-methylpropanoyl)pyrrolidin-3-yl]-2-methylbenzamide]	0.0054 µM
Cc1ccc(-c2cc(C(F)(F)F)c3c(N)ncnn23)cc1C(=O)N[C@@H]1CN(C(=O)c2cc(C(F)(F)F)ccn2)C[C@@H]1F [Example 1001, 5-[4-amino-5-(trifluoromethyl)pyrrolo[2,1-f][1,2,4]triazin-7-yl]-N-[(3R,4S)-4-fluoro-1-[4-(trifluoromethyl)pyridine-2-carbonyl]pyrrolidin-3-yl]-2-methylbenzamide]	0.065 µM
Cc1ccc(-c2cc(C(F)(F)F)c3c(N)ncnn23)cc1C(=O)N[C@@H]1CN(C(=O)c2ccc(F)cc2)C[C@@H]1F [Example 1002, 5-[4-amino-5-(trifluoromethyl)pyrrolo[2,1-f][1,2,4]triazin-7-yl]-N-[(3R,4S)-4-fluoro-1-(4-fluorobenzoyl)pyrrolidin-3-yl]-2-methylbenzamide]	0.0052 µM
Cc1ccc(-c2cc(C(F)(F)F)c3c(N)ncnn23)cc1C(=O)N[C@@H]1CN(C(=O)c2cccc(F)c2)C[C@@H]1F [Example 1003, 5-[4-amino-5-(trifluoromethyl)pyrrolo[2,1-f][1,2,4]triazin-7-yl]-N-[(3R,4S)-4-fluoro-1-(3-fluorobenzoyl)pyrrolidin-3-yl]-2-methylbenzamide]	0.0038 µM
Cc1ccc(-c2cc(C(F)(F)F)c3c(N)ncnn23)cc1C(=O)N[C@@H]1CN(C(=O)c2cscn2)C[C@@H]1F [Example 1004, 5-[4-amino-5-(trifluoromethyl)pyrrolo[2,1-f][1,2,4]triazin-7-yl]-N-[(3R,4S)-4-fluoro-1-(1,3-thiazole-4-carbonyl)pyrrolidin-3-yl]-2-methylbenzamide]	0.017 µM
Cc1ccc(-c2cc(C(F)(F)F)c3c(N)ncnn23)cc1C(=O)N[C@@H]1CN(C(=O)c2c(F)cncc2F)C[C@@H]1F [Example 1005, 5-[4-amino-5-(trifluoromethyl)pyrrolo[2,1-f][1,2,4]triazin-7-yl]-N-[(3R,4S)-1-(3,5-difluoropyridine-4-carbonyl)-4-fluoropyrrolidin-3-yl]-2-methylbenzamide]	0.0029 µM
Cc1ccc(-c2cc(C(F)(F)F)c3c(N)ncnn23)cc1C(=O)N[C@@H]1CN(C(=O)c2ccncc2F)C[C@@H]1F [Example 1006, 5-[4-amino-5-(trifluoromethyl)pyrrolo[2,1-f][1,2,4]triazin-7-yl]-N-[(3R,4S)-4-fluoro-1-(3-fluoropyridine-4-carbonyl)pyrrolidin-3-yl]-2-methylbenzamide]	0.0072 µM
Cc1ccc(-c2cc(C(F)(F)F)c3c(N)ncnn23)cc1C(=O)N[C@@H]1CN(C(=O)c2ncc(F)cc2F)C[C@@H]1F [Example 1007, 5-[4-amino-5-(trifluoromethyl)pyrrolo[2,1-f][1,2,4]triazin-7-yl]-N-[(3R,4S)-1-(3,5-difluoropyridine-2-carbonyl)-4-fluoropyrrolidin-3-yl]-2-methylbenzamide]	0.009 µM
Cc1ccc(-c2cc(C(F)(F)F)c3c(N)ncnn23)cc1C(=O)N[C@@H]1CN(C(=O)c2ccc(F)c(F)c2)C[C@@H]1F [Example 1008, 5-[4-amino-5-(trifluoromethyl)pyrrolo[2,1-f][1,2,4]triazin-7-yl]-N-[(3R,4S)-1-(3,4-difluorobenzoyl)-4-fluoropyrrolidin-3-yl]-2-methylbenzamide]	0.0057 µM
Cc1ccc(-c2cc(C(F)(F)F)c3c(N)ncnn23)cc1C(=O)N[C@@H]1CN(C(=O)c2cnccc2C(F)(F)F)C[C@@H]1F [Example 1009, 5-[4-amino-5-(trifluoromethyl)pyrrolo[2,1-f][1,2,4]triazin-7-yl]-N-[(3R,4S)-4-fluoro-1-[4-(trifluoromethyl)pyridine-3-carbonyl]pyrrolidin-3-yl]-2-methylbenzamide]	0.024 µM
Cc1ccc(-c2cc(C(F)(F)F)c3c(N)ncnn23)cc1C(=O)N[C@@H]1CN(C(=O)c2ncccc2F)C[C@@H]1F [Example 1010, 5-[4-amino-5-(trifluoromethyl)pyrrolo[2,1-f][1,2,4]triazin-7-yl]-N-[(3R,4S)-4-fluoro-1-(3-fluoropyridine-2-carbonyl)pyrrolidin-3-yl]-2-methylbenzamide]	0.0096 µM
Cc1ccc(-c2cc(C(F)(F)F)c3c(N)ncnn23)cc1C(=O)N[C@@H]1CN(C(=O)c2ccc(Cl)cc2)C[C@@H]1F [Example 1011, 5-[4-amino-5-(trifluoromethyl)pyrrolo[2,1-f][1,2,4]triazin-7-yl]-N-[(3R,4S)-1-(4-chlorobenzoyl)-4-fluoropyrrolidin-3-yl]-2-methylbenzamide]	0.015 µM
Cc1ccc(-c2cc(C(F)(F)F)c3c(N)ncnn23)cc1C(=O)N[C@@H]1CN(C(=O)c2ccc(F)cn2)C[C@@H]1F [Example 1012, 5-[4-amino-5-(trifluoromethyl)pyrrolo[2,1-f][1,2,4]triazin-7-yl]-N-[(3R,4S)-4-fluoro-1-(5-fluoropyridine-2-carbonyl)pyrrolidin-3-yl]-2-methylbenzamide]	0.0071 µM
Cc1ccc(-c2cc(C(F)(F)F)c3c(N)ncnn23)cc1C(=O)N[C@@H]1CN(C(=O)c2cnccc2Cl)C[C@@H]1F [Example 1013, 5-[4-amino-5-(trifluoromethyl)pyrrolo[2,1-f][1,2,4]triazin-7-yl]-N-[(3R,4S)-1-(4-chloropyridine-3-carbonyl)-4-fluoropyrrolidin-3-yl]-2-methylbenzamide]	0.0099 µM
Cc1ccc(-c2cc(C(F)(F)F)c3c(N)ncnn23)cc1C(=O)N[C@@H]1CN(C(=O)c2cc(Cl)ccn2)C[C@@H]1F [Example 1015, 5-[4-amino-5-(trifluoromethyl)pyrrolo[2,1-f][1,2,4]triazin-7-yl]-N-[(3R,4S)-1-(4-chloropyridine-2-carbonyl)-4-fluoropyrrolidin-3-yl]-2-methylbenzamide]	0.022 µM
Cc1ccc(-c2cc(C(F)(F)F)c3c(N)ncnn23)cc1C(=O)N[C@@H]1CN(C(=O)c2ccccc2)C[C@@H]1F [Example 1017, 5-[4-amino-5-(trifluoromethyl)pyrrolo[2,1-f][1,2,4]triazin-7-yl]-N-[(3R,4S)-1-benzoyl-4-fluoropyrrolidin-3-yl]-2-methylbenzamide]	0.0069 µM
Cc1ccc(-c2cc(C(F)(F)F)c3c(N)ncnn23)cc1C(=O)N[C@@H]1CN(C(=O)c2ccncc2)C[C@@H]1F [Example 1018, 5-[4-amino-5-(trifluoromethyl)pyrrolo[2,1-f][1,2,4]triazin-7-yl]-N-[(3R,4S)-4-fluoro-1-(pyridine-4-carbonyl)pyrrolidin-3-yl]-2-methylbenzamide]	0.0093 µM
Cc1ccc(-c2cc(C(F)(F)F)c3c(N)ncnn23)cc1C(=O)N[C@@H]1CN(C(=O)c2ccccn2)C[C@@H]1F [Example 1019, 5-[4-amino-5-(trifluoromethyl)pyrrolo[2,1-f][1,2,4]triazin-7-yl]-N-[(3R,4S)-4-fluoro-1-(pyridine-2-carbonyl)pyrrolidin-3-yl]-2-methylbenzamide]	0.0081 µM
Cc1ccc(-c2cc(C(F)(F)F)c3c(N)ncnn23)cc1C(=O)N[C@@H]1CN(C(=O)c2ccccc2Cl)C[C@@H]1F [Example 1020, 5-[4-amino-5-(trifluoromethyl)pyrrolo[2,1-f][1,2,4]triazin-7-yl]-N-[(3R,4S)-1-(2-chlorobenzoyl)-4-fluoropyrrolidin-3-yl]-2-methylbenzamide]	0.0076 µM
